This is an account of results in PubChem BioAssay AID1240 (Sanford-Burnham Center for Chemical Genomics, 2008).

Structures are written as SMILES. Out of some 50,000 compounds screened, about 800 (1.6%) showed an effect of 50% or more. Some of the results follow.

The assay deals with Bcl-2-like protein 10 (Homo sapiens) (UniProt Q9HD36). The assay can be described thus: Phenotype converters, Bcl-B/TR3 peptide binding displacement, primary biochemical FP (AID 1240).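 Note: 0% = Bcl-B with tracer peptide and DMSO and 100% = tracer peptide lacking Bcl-B.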 The settings on record: GST-Bcl-B / FITC-TR3 peptide fluorescence polarization; stronger effect = higher value; compound at 3.75 mg/L. Background: Fluorescence polarisation rises when a labelled molecule tumbles more slowly, as on binding a larger partner.
Chain of UniProt Q9HD36 (Q9HD36 whole entry, looked up): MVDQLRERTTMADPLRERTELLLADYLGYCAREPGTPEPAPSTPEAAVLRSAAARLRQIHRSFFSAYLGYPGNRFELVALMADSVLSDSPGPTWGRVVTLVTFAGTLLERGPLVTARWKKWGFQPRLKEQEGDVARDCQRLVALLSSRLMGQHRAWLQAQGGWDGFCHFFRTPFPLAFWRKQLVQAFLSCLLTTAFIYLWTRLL
For the compound `COc1ccc(Oc2c(C(F)(F)F)oc3c(CN4CCCC4)c(O)ccc3c2=O)cc1`, the displacement was 13.2%.
Take `CCOC(=O)c1ccccc1Nc1cn(C(C)=O)c2ccccc12`: the displacement is -1.7%.
With `Cc1cccc(CC2CC(=O)N(c3ccccc3)C2=O)c1` (stereo unspecified) the figure was 12.1%; with `CCc1ccc(/C=N/N2CCN(Cc3cccc4ccccc34)CC2)cc1`, -3.1%.
For the compound `O=C(N1CCOCC1)N1CCN(c2ccc(F)cc2)CC1`, the displacement amounted to 14.1%.
Consider `COc1ccc(CCNC(=O)CN(c2ccc(Br)cc2)S(C)(=O)=O)cc1OC`, for which the displacement was -8.4%.
In the case of `Cc1cc(C)nc(/N=C(/N)Nc2ccc(C(=O)O)cc2)n1`, the displacement was determined as 1.3%.
Consider `CCCOC(=O)c1ccc(NC(=O)c2c(-c3c(Cl)cccc3Cl)noc2C)cc1`, for which the displacement turned out to be 7.4%.
On to `CCCCSc1nnc2c(n1)OC1(Nc3ccccc3-2)C(=O)Nc2ccc(F)cc21` (stereo unspecified), for which the displacement was determined as 7.9%.
With `CCCn1c(C(O)c2cc(OC)ccc2OC)nc2ccccc21` (stereo unspecified) the figure was -2%; with `O=C(Nc1ccc(Cl)cn1)c1cc(Br)ccc1Cl`, -0.7%; with `COc1cc(C2NC(=O)NC(C)=C2C(=O)OCCc2ccccc2)cc(Cl)c1O` (stereo unspecified), 13.6%.
For the compound `O=C1CSC(=S)N1N1C(=O)c2ccccc2C1=O`, the displacement is -1.3%.
With `Cc1cc(C)c(OCCN2CCOCC2)c(Cl)c1`, the displacement worked out at 7%.
Take `C/C(=C\c1ccccc1)C(=O)Nc1c(C)n(C)n(-c2ccccc2)c1=O`: the displacement worked out at 1.6%.
In the case of `CCOC(=O)C1CCCn2c1nc1scc(-c3ccccc3)c1c2=O` (stereo unspecified), the displacement is -14.2%.
Consider `COc1ccc(NC(=O)C2=C(C)NC(=O)NC2c2ccc(C)cc2)cc1` (stereo unspecified), for which the displacement was 0%.
On to `CCOc1cc(/C=N/N2CCN(Cc3ccc(Cl)cc3)CC2)ccc1O`, for which the displacement worked out at 25%.
Under `CC12C(=O)C(C)(C(c3ccccc3)=C1c1ccccc1)C1C(=O)N(c3ccc(Cl)cc3)C(=O)C12` (stereo unspecified) stands 4.5%; under `COC(=O)C(C(=O)OC)C(c1ccccc1)C(C(=O)OC)C(=O)OC`, -8.5%.
In the case of `CN(C)CCN1C(=O)C(=O)/C(=C(/O)c2ccccc2)C1c1ccc(N(C)C)cc1` (stereo unspecified), the displacement came out at 3.8%.
Take `O=C(Nc1ccc2nccnc2c1)N1CCN(c2ccccc2)CC1`: the displacement was 5.9%.
For `O=C(c1ccccc1)N1N=C2CCCCCC2C1(O)C(F)(F)F` (stereo unspecified), the displacement is -1.7%.
For the compound `COCCNC(=O)c1ccc(Cl)cc1Cl`, the displacement is -5.3%.
Under `CC(C)(C)C(=O)NNC(=O)C(=O)N1CCOCC1` stands -4.6%.
With `C(=N\N=C\c1ccc2c(c1)OCO2)/c1ccc2c(c1)OCO2` the figure was 4.9%.
As for `O=C(CN1C(=O)c2cccc3cccc(c23)C1=O)N1CCN(CCN2C(=O)C3C4C=CC(C4)C3C2=O)CC1` (stereo unspecified), the displacement is -1.9%.
With `O=c1oc2cc(OCc3ccc(F)cc3)c(Cl)cc2c2c1CCC2` the figure was 0.9%; with `CC(C)(C)c1ccc(S(=O)(=O)Nc2ccc(Cl)cc2)cc1`, 14%; with `CN1C(=O)CC(N2CCN(c3ccccc3)CC2)C1=O` (stereo unspecified), 6.2%.
As for `CC1=C(C(=O)OCCOc2ccccc2)C(c2ccc(Cl)cc2)NC(=O)N1` (stereo unspecified), the displacement stood at 9.1%.
On to `COc1ccc(N2C(=O)/C(=C/c3ccc(-c4ccccc4[N+](=O)[O-])o3)C(=O)NC2=S)cc1`, for which the displacement stood at 15.9%.
Consider `COC(=O)c1ccccc1NC(=O)c1ccc(-c2cccc(Cl)c2)o1`, for which the displacement was found to be 1.9%.
Turning to `O=C(c1ccc(Cl)cc1)N1CCN(c2c(Cl)cccc2[N+](=O)[O-])CC1`, the displacement is 12.6%.
As to `Nc1cccc(C(=O)Nc2ccc(C(=O)O)cc2)c1`, the displacement came out at 13.5%.
Under `CCCc1ccc(-c2nc(Cc3ccc(OC)cc3)no2)cc1` stands -8.7%.
Turning to `CC(=O)Nc1ccccc1NC(=O)COc1ccc(Br)c(C)c1`, the displacement is 5.9%.
With `COC(=O)c1c(NC(=O)c2cc3ccccc3oc2=O)sc2c1C(C(=O)OC)CC2` (stereo unspecified), the displacement was 8.1%.
For `Cc1nc2sc3c(c2c(=O)[nH]1)CCC3`, the displacement is 8.7%.
In the case of `COc1ccc(C(=O)NCc2ccccc2C)cc1OC`, the displacement amounted to 16.3%.
Take `CCS(=O)(=O)C(=CNc1ccccc1)S(=O)(=O)CC`: the displacement is 13.5%.
For `CC1(C)CC(=O)C2=C(C1)OC1=C(C(=O)CC(C)(C)C1)C2c1ccc(Br)c([N+](=O)[O-])c1`, the displacement was 11.9%.
With `Cc1ccccc1C(=O)NCc1ccco1` the figure was -7.7%; with `CC1(C)Cc2c(ccc3ccccc23)C(=O)N1`, 11.1%; with `COc1ccc(Br)cc1CN1CCN(C(=O)c2cccc(Cl)c2)CC1`, 3.4%.
For the compound `Cc1cc(C)c(C(=O)/C(=C/c2ccccc2F)c2ccccc2)c(=O)[nH]1`, the displacement is -3.4%.
Take `N#C/C(=C/c1ccc(-c2ccccc2)cc1)c1nc(-c2ccc(Cl)cc2)cs1`: the displacement turned out to be 10.2%.
As to `COc1ccccc1N1CCN(C(=O)c2cc(-c3ccccc3Cl)nc3ccccc23)CC1`, the displacement was -3.2%.
Turning to `CCCCCCNC(=O)c1ccc(F)cc1`, the displacement stood at 2.4%.
Take `Cc1ccc2c(c1)-c1c(ssc1=S)C(C)(C)N2C(=O)CSc1nc2ccccc2o1`: the displacement came to 32.6%.
For `CN1CCN(CC(=O)n2c3ccccc3c3ccccc32)CC1`, the displacement was -6.7%.
With `O=C(COc1cc2oc(=O)c3c(c2cc1Cl)CCCC3)OCc1ccccc1` the figure was 0.7%.
With `O=C(O)c1cccnc1SC1CC(=O)N(c2ccc([N+](=O)[O-])cc2)C1=O` (stereo unspecified) the figure was 5.9%; with `COc1ccc(S(=O)(=O)N(CCc2ccccc2)CC(=O)NCC2CCCO2)cc1` (stereo unspecified), -15.8%; with `Cn1nc(CC(=O)O)c2ccccc2c1=O`, 7.8%.
As for `COc1cc(/C=N/n2cnnc2)ccc1OS(=O)(=O)c1ccccc1[N+](=O)[O-]`, the displacement was -2%.
Turning to `CCCOc1ccc(C(=O)Nc2ncc(Cc3ccc(F)cc3)s2)cc1`, the displacement was -11.1%.
On to `COc1cc(NS(=O)(=O)c2cccc([N+](=O)[O-])c2)cc(OC)c1`, for which the displacement was -3.6%.
Consider `O=C1CC(c2ccc3c(c2)OCO3)CC2=C1C(c1ccc(-c3ccccc3)cc1)Nc1ccccc1N2` (stereo unspecified), for which the displacement was 3%.
As to `CCOc1ccc(/C=N/Nc2nc(-c3ccc(C)cc3)nc3ccccc23)c(O)c1`, the displacement is 34.7%.
For the compound `O=C(Nc1ccc(-c2nc3ccccc3o2)cc1)c1ccco1`, the displacement turned out to be 10%.
On to `CCc1ccc(N2NC(=O)/C(=C/c3ccc(N4CCOCC4)cc3)C2=O)cc1`, for which the displacement is 5%.
Under `Cc1ccc(N=Cc2c(C)[nH]c3ccccc23)cc1I` stands 6.1%.
As to `Cc1cccc(N2C(=O)CC(N3CCN(C/C=C/c4ccccc4)CC3)C2=O)c1` (stereo unspecified), the displacement amounted to 9.3%.
Take `Cc1cc(OCC(=O)Nc2ccc(F)cc2)ccc1Br`: the displacement was -13.4%.
For the compound `CCOC(=O)CSCCOc1ccc(/C=C2/C(=O)NC(=O)N(c3ccc(OC)cc3)C2=O)cc1OC`, the displacement was 17.6%.
Turning to `CC(C)(C)c1ccc(-c2nn(CCC#N)cc2/C=N/O)cc1`, the displacement is 1.1%.
Regarding `O=C(N/N=C/c1ccccc1O)NC12CC3CC(CC(C3)C1)C2`, the displacement was -2.4%.
`CCOC(=O)c1ccc(NC2=NC(C)(C)Cc3ccccc32)cc1`: the displacement is -3.3%.
Take `O=C(c1cc2n(n1)C(C(F)(F)F)CC(c1ccc(Cl)c(Cl)c1)N2)N1CCN(Cc2ccccc2)CC1` (stereo unspecified): the displacement is 6.2%.
As to `CCc1ccc(CN2CCN(Cc3ccc(OC)cc3OC)CC2)cc1`, the displacement is -2.3%.
As for `CCOC(=O)C(=CNc1ccc(F)c(F)c1O)C(=O)OCC`, the displacement is -13%.
Under `CN1CCN(CC(=O)N2c3ccccc3C(C)(c3ccccc3)CC2(C)C)CC1` (stereo unspecified) stands -3.9%; under `O=C1NC(=O)N(c2ccccc2)C(=O)/C1=C\c1cccc(OCc2ccc(F)cc2)c1`, 13.6%.
As to `CCOc1ccc(/C=N/NC(=O)CN(c2ccc(C)cc2)S(=O)(=O)c2ccccc2)cc1`, the displacement was -4.7%.
Turning to `O=C(O)CCCCCN1C(=O)C(=O)/C(=C(/O)c2ccccc2)C1c1ccccc1F` (stereo unspecified), the displacement amounted to 0.1%.
Take `O=C(Cc1ccc(Br)cc1)NC(c1ccccc1)c1ccccc1`: the displacement is -3.8%.
As for `Nn1cnc2scc(-c3ccc(Cl)cc3)c2c1=O`, the displacement stood at 5.9%.
Under `CCOC(=O)c1c(NC(=O)c2ccncc2)sc2c1CCC(C)C2` (stereo unspecified) stands 7.5%; under `C=CCn1c(-c2cc(OC)c(OC)c(OC)c2)n[nH]c1=S`, -7.4%.
Regarding `COc1ccc(OCC(=O)Nc2ccccc2CO)cc1`, the displacement was -5.7%.
Under `CCNC(=O)c1c(N)sc2c1CCCCC2` stands 36.8%; under `CNC(=O)CN(c1ccc(C)cc1)S(=O)(=O)c1ccc(OC)c(OC)c1`, -12.8%; under `CCNC(=O)CN(c1ccccc1OCC)S(=O)(=O)c1ccccc1`, 10.1%.
Take `Cc1ccc(C(=O)/C=C/c2ccccc2OCc2ccccc2)cc1`: the displacement was found to be 10.5%.
In the case of `COc1ccc(S(=O)(=O)N2CCN(Cc3ccncc3)CC2)cc1`, the displacement was -7.9%.
Regarding `COc1ccc(N2C(=O)NC(=O)/C(=C/c3ccc(-c4ccccc4[N+](=O)[O-])o3)C2=O)cc1`, the displacement is -46.3%.
With `Cc1ccc(OCC(=O)NCc2ccc(F)cc2)c(Br)c1`, the displacement is -3.1%.
On to `Cc1ccc(-c2ccc(/C=C3\C(=O)NN(c4ccccc4)C3=O)o2)c([N+](=O)[O-])c1`, for which the displacement turned out to be 14.1%.
As for `COc1ccccc1OCCOc1cccc(/C=C2/SC(=S)N(C)C2=O)c1`, the displacement amounted to 95.5%.
Turning to `COc1ccc(N2C(=O)NC(=O)/C(=C\c3ccc(Oc4ccc([N+](=O)[O-])cn4)cc3)C2=O)cc1`, the displacement is 4.2%.
For `O=C(NC(=S)Nc1ccc(N2CCCCC2)c(Cl)c1)c1ccco1`, the displacement was -7.1%.
As for `Cc1ccccc1C(=O)Nc1ccc(NC(=O)c2cccc(Br)c2)cc1`, the displacement was found to be 1.6%.
As to `O=C(/C=C/c1cccc([N+](=O)[O-])c1)N1CCC(Cc2ccccc2)CC1`, the displacement came out at 5%.
Take `O=C(/C=C/c1ccccc1)NC(=S)Nc1cccc(NC(=O)c2ccco2)c1`: the displacement was 8.2%.
In the case of `O=C1c2ccccc2C(=O)c2c1c(O)c1ccccc1c2Nc1ccccc1`, the displacement was -0.5%.
As to `C#CCOC(=O)C(C=C=C)(C(F)(F)F)C(F)(F)F`, the displacement came to 7%.
`COc1ccc(C2CC(=O)C3=C(C2)Nc2ccccc2NC3c2ccccc2Br)cc1OC` (stereo unspecified): the displacement was -27.1%.
On to `CS(=O)(=O)N(Cc1ccccc1)c1ccc(C(=O)Nc2ccc(Oc3ccccc3)cc2)cc1`, for which the displacement was found to be 3.7%.
In the case of `COc1ccc(OC)c(S(=O)(=O)n2c(C)nc3ccccc32)c1`, the displacement stood at 14.9%.
For `CCOc1ccc(NC(=O)C2=C(C)NC(=O)NC2c2ccc(O)c(OC)c2)cc1` (stereo unspecified), the displacement is 17.9%.
Under `CN(C)CC(=O)N1c2ccccc2CCc2ccc(NC(N)=O)cc21` stands 8.4%; under `Cc1ccccc1N1C(=O)NC(=O)/C(=C\c2cc(C)n(-c3cccnc3)c2C)C1=O`, 2.3%; under `CCOC(=O)C(CC(C)C)NC(=O)C(Cc1ccccc1)N1C(=O)c2ccccc2C1=O` (stereo unspecified), 13.8%.
With `CCCOC(=O)c1cccc(NC(=O)COc2ccc(C)cc2Br)c1`, the displacement was 12.3%.
With `Cc1cccc(N2C(=O)C3C(C2=O)N2C(c4ccco4)C4C(=O)N(c5cccc(C)c5)C(=O)C4N2C3c2ccco2)c1` (stereo unspecified) the figure was -10.9%.
